{"source": "PubChem BioAssay AID540267", "about": "(National Center for Advancing Translational Sciences (NCATS), 2011)", "note": "The campaign covered roughly 340,000 compounds. About 530 (0.16%) were called active. This list was built around the results that the source calls inconclusive (neither active nor inactive); the mix of calls is not that of the screen. Cut-off read from the data, not from the text of the source: active = activity change below about -80%; inconclusive = between about -30% and that limit; inactive = weaker than that. % is set by controls: 0 for no effect and ±100 for the full control effect."}
{"assay": "Small Molecules that selectively kill Giardia lamblia: qHTS;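 note: parasites exposed to compound for two days anaerobically before the ATP read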", "conditions": "Giardia lamblia trophozoite viability; at 7.66 µM; stronger effect = lower value", "summary_of_the_method": "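Anaerobic 48 hrs incubation at 37 deg C of 100 trophozoites/well with test compounds; ATPLite 1-Step luminescence, 15-30 min RT, reports cellular ATP as viability.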"}
{"smiles": "Cc1ncc([N+](=O)[O-])n1CCOC(=O)c1ccccc1", "activity change": "active: -99.8%"}
{"smiles": "CCCc1cc(C(=O)NC(C)C2CCCO2)cs1", "note": "(centres undefined)", "activity change": "inconclusive: -39% [inhibitor]"}
{"smiles": "CCC1=Nc2ccccc2NC2=C1C(=O)CCC2", "activity change": "inactive: -0.865%"}
{"smiles": "Clc1ccc(C2CC(c3cccs3)n3ncnc3N2)cc1", "note": "(centres undefined)", "activity change": "inactive: -3.86%"}
{"smiles": "COc1ccc(CNS(=O)(=O)c2cc(-c3cc(C)no3)ccc2C(C)C)cc1", "activity change": "inconclusive: -35.2% [inhibitor]"}
{"smiles": "Cc1cccc(C(=O)NCC(=O)N2CCN(S(=O)(=O)c3ccc4c(c3)OCCO4)CC2)c1", "activity change": "inconclusive: -36.5% [inhibitor]"}
{"smiles": "O=C(NN1C(=O)c2ccccc2NC1c1ccc([N+](=O)[O-])o1)c1ccc(Br)cc1", "note": "(centres undefined)", "activity change": "inconclusive: -61.4% [inhibitor]"}
{"smiles": "COC(=O)c1nn(-c2nc(-c3ccc(OC)c(OC)c3)cc(C(F)(F)F)n2)cc1[N+](=O)[O-]", "activity change": "inconclusive: -39.2% [inhibitor]"}
{"smiles": "COc1cccc2sc(Nc3nc(C)c(C(C)=O)s3)nc12", "activity change": "inconclusive: -30.5% [inhibitor]"}
{"smiles": "O=C(COc1cccnc1[N+](=O)[O-])N1CCc2ccccc2C1", "activity change": "inconclusive: -39.5% [inhibitor]"}
{"smiles": "CCN1C(=O)c2cccc3c(S(=O)(=O)N4CCC(C)CC4)ccc1c23", "activity change": "inactive: 11.5%"}
{"smiles": "O=C(CSc1ccc(Cl)cc1)N/N=C/c1ccc([N+](=O)[O-])o1", "activity change": "active: -94.6%"}
{"smiles": "Cc1ccc(NC(=O)c2ccc([N+](=O)[O-])o2)cc1C", "activity change": "active: -94.2%"}
{"smiles": "Cc1c(C(=O)Oc2cc(N)n(S(C)(=O)=O)n2)cccc1[N+](=O)[O-]", "activity change": "inactive: 0.191%"}
{"smiles": "CC(CCc1ccccc1)NC(=O)CN1CCOc2ccccc21", "note": "(centres undefined)", "activity change": "inconclusive: -30.2% [inhibitor]"}
{"smiles": "COc1ccc(CC(=O)Nc2ccc(-c3cn4cccc(C)c4n3)cc2)cc1OC", "activity change": "inactive: 15.7%"}
{"smiles": "CC(C)Cn1c2nc3ccccc3nc2c2c(=O)n(CCN3CCOCC3)cnc21", "activity change": "inactive: 12.7%"}
{"smiles": "CC(=O)c1ccc(-c2ccc(C(=O)N(C)Cc3nc4ccccc4c(=O)[nH]3)o2)cc1", "activity change": "inconclusive: -33.1% [inhibitor]"}
{"smiles": "COc1cc(CCC(=O)OCC(=O)NCCc2ccc(S(N)(=O)=O)cc2)cc(OC)c1OC", "activity change": "inconclusive: -40.4% [inhibitor]"}
{"smiles": "C/C(=N/OCc1ccc(Br)cc1)c1ccccn1", "activity change": "inconclusive: -36.7% [inhibitor]"}
{"smiles": "COC(=O)c1sc(S(=O)(=O)Nc2c(C)nn(C)c2C)c(C(=O)OC)c1C", "activity change": "inconclusive: -36.6% [inhibitor]"}
{"smiles": "OC(CNCc1ccc2c(c1)OCO2)COc1ccc(F)cc1", "note": "(centres undefined)", "activity change": "inconclusive: -37.6% [inhibitor]"}
{"smiles": "O=C(COC(=O)COc1ccccc1)Nc1ccc(OC(F)(F)F)cc1", "activity change": "inconclusive: -30.8% [inhibitor]"}
{"smiles": "CCN(CC)C(=O)CSc1nnc(-c2ccc(S(=O)(=O)N3CCOCC3)cc2)n1C", "activity change": "inconclusive: -34.7% [inhibitor]"}
{"smiles": "COc1cccc(C2c3[nH]c4ccccc4c3C[C@H]3C(=O)N(CCCO)CC(=O)N23)c1OC", "note": "(some centres undefined)", "activity change": "inconclusive: -37.9% [inhibitor]"}
{"smiles": "COc1ccc(CCNC(=O)C2CC3Cn4c(nc5cc(C)c(C)cc54)C3N2C)cc1", "note": "(centres undefined)", "activity change": "inconclusive: -44% [inhibitor]"}
{"smiles": "CCOC(=O)c1c(N)sc(C(=O)Nc2ccccc2F)c1C", "activity change": "inconclusive: -32% [inhibitor]"}
{"smiles": "O=C(Nc1cccnc1)c1ccc(Cl)c(S(=O)(=O)N2CCCCC2)c1", "activity change": "inactive: -14.1%"}
{"smiles": "Cc1cccc(-c2nc(CS(=O)CC(=O)N3CCc4ccccc4C3)c(C)o2)c1", "note": "(centres undefined)", "activity change": "inconclusive: -37.9% [inhibitor]"}
{"smiles": "O=C(Nc1cc(S(=O)(=O)N2CCCCC2)ccc1Cl)c1ccccc1NS(=O)(=O)c1ccc(F)cc1", "activity change": "inactive: -0.274%"}
{"smiles": "O=S(=O)(c1ccc2ccccc2c1)N1CCCCC1", "activity change": "inactive: 8.34%"}
{"smiles": "Cc1ccc(OC/C(=N\\O)C(C)(C)C)c([N+](=O)[O-])c1", "activity change": "inconclusive: -31.9% [inhibitor]"}
{"smiles": "Cc1cccc(/N=C/c2nc(-c3ccccc3Br)oc2O)n1", "activity change": "inconclusive: -41.5% [inhibitor]"}
{"smiles": "CC(C)CC(=O)NC(=S)Nc1nc(-c2ccc(Cl)cc2)cs1", "activity change": "inconclusive: -38.3% [inhibitor]"}
{"smiles": "CCC1=C(OC(=O)N(CC)CC)N2C(=O)OC(=NCC3CC3)[C@]2(C)[C@H]2C1=CC[C@H]1C(=O)NC(=O)[C@H]12", "activity change": "inconclusive: -43% [inhibitor]"}
{"smiles": "Cc1ccc(Nc2c(-c3ccccn3)nc3ccc(C)cn23)cc1", "activity change": "inactive: 3.74%"}
{"smiles": "C=CCn1c(=N)n(CC(O)COc2ccc(OC)cc2)c2ccccc21", "note": "(centres undefined)", "activity change": "inconclusive: -34.5% [inhibitor]"}
{"smiles": "Cc1[nH]n(-c2ccccc2)c(=O)c1N=Nc1ccccc1C(=O)O", "activity change": "inconclusive: -32.2% [inhibitor]"}
{"smiles": "CCOC(=O)CSc1nnc(Cn2nnc3ccccc32)n1-c1ccc(F)cc1", "activity change": "inactive: -4.61%"}
{"smiles": "O=C(Nc1ccc2c(c1)nc1n2CCSC1)c1ccco1", "activity change": "inconclusive: -59.4% [inhibitor]"}
{"smiles": "Cc1nonc1CN(C)C(=O)CC1C(=O)NCCN1Cc1ccc(F)c(F)c1", "note": "(centres undefined)", "activity change": "inconclusive: -30.4% [inhibitor]"}
{"smiles": "Cc1nc([N+](=O)[O-])c(C(=O)O)n1C", "activity change": "inactive: 13%"}
{"smiles": "N/C(=N\\OC(=O)Nc1ccccc1)c1ncc([N+](=O)[O-])s1", "activity change": "inconclusive: -59.2% [inhibitor]"}
{"smiles": "O=c1[nH]ncc(N2CCN(C(c3ccccc3)c3ccccc3)CC2)c1Cl", "activity change": "inactive: 8.14%"}
{"smiles": "Cc1ccc(C(=O)Nc2cccc(C(=O)O)c2)cc1S(=O)(=O)N1CCOCC1", "activity change": "inactive: -21.8%"}
{"smiles": "O=C(N=C1SC2CS(=O)(=O)CC2N1CCc1ccc(F)cc1)C1CCCCC1", "note": "(centres undefined)", "activity change": "inconclusive: -30.9% [inhibitor]"}
{"smiles": "CSc1ncc(Cl)c(C(=O)Nc2ccc(C)c(C)c2)n1", "activity change": "inactive: 5.49%"}
{"smiles": "Cc1cc(Cl)c(C(=O)Nc2cccc(C(F)(F)F)c2)c(C)n1", "activity change": "inactive: 13%"}
{"smiles": "CC/C=C1/N=C2C(=O)N(C)C(=O)N=C2N(C)N1", "activity change": "active: -87.9%"}
{"smiles": "C/C(N=Nc1nc2ccccc2s1)=N\\Nc1ccccc1O", "activity change": "inconclusive: -33.6% [inhibitor]"}
{"smiles": "COCCNC(=O)Cn1cc(/C=N/NC(=O)c2ccc(Oc3ccc(O)cc3)cc2)c2ccccc21", "activity change": "inactive: -8.27%"}
{"smiles": "CCN(CC)CCn1c(=N)n(CCOc2ccccc2)c2ccccc21", "activity change": "inactive: -3.09%"}
{"smiles": "CCN1CCCC1CNC(=S)Nc1ccc(C(C)=O)cc1", "note": "(centres undefined)", "activity change": "inconclusive: -40.3% [inhibitor]"}
{"smiles": "CCOC(=O)c1sc(NC(=O)c2cccs2)nc1C", "activity change": "inconclusive: -44.8% [inhibitor]"}
{"smiles": "CCOC(=O)C1=C(C)N=c2s/c(=C\\c3ccc(OCC(=O)O)cc3)c(=O)n2C1c1ccc(OC(C)C)cc1", "note": "(centres undefined)", "activity change": "inactive: 0.906%"}
{"smiles": "C=CCNC(=O)CC(=O)N/N=C/c1ccc(F)cc1", "activity change": "inactive: -9.41%"}
{"smiles": "CS(=O)(=O)N(CC(=O)NCCSc1ccc(Cl)cc1)c1ccc2c(c1)OCO2", "activity change": "inconclusive: -30.4% [inhibitor]"}
{"smiles": "CCOc1ccccc1N(CC(=O)Nc1cccc(OC)c1)S(=O)(=O)c1ccccc1", "activity change": "inconclusive: -32.6% [inhibitor]"}
{"smiles": "COc1ccc(-c2c(-c3ccsc3)oc3ccc(N4CCOCC4)cc23)cn1", "activity change": "inconclusive: -34.9% [inhibitor]"}
{"smiles": "C=C(C)CNC(=S)N/N=C(\\C)c1ccc(OC)cc1", "activity change": "inconclusive: -31.5% [inhibitor]"}
{"smiles": "Fc1ccccc1/C=N/Nc1cc(N2CCCCC2)ncn1", "activity change": "inconclusive: -39.4% [inhibitor]"}
{"smiles": "COc1ccc2c(-c3ccccc3)cc(SCC(=O)NC3CCS(=O)(=O)C3)nc2c1", "note": "(centres undefined)", "activity change": "inactive: 1.59%"}
{"smiles": "O=C(CNC(=O)C1CCCCC1)Nc1cc(Cl)ccc1Cl", "activity change": "inconclusive: -30.1% [inhibitor]"}
{"smiles": "Nn1c(-c2ccc(O)cc2)nnc1-c1ccc(O)cc1", "activity change": "inactive: 4.01%"}
{"smiles": "CCOC(=O)CCC(=O)Nc1cc(S(=O)(=O)N2CCOCC2)ccc1N1CCCCC1", "activity change": "inactive: 22.3%"}
{"smiles": "O=C(O)CCC(=O)N1CCN(c2cccc(Cl)c2)CC1", "activity change": "inactive: -3.46%"}
{"smiles": "O=C1c2ccccc2S(=O)(=O)c2cc(N3CCOCC3)ccc21", "activity change": "inconclusive: -43.5% [inhibitor]"}
{"smiles": "COc1ccc(-c2noc(CCC(=O)N3CCN(c4cccc(F)c4)CC3)n2)cc1", "activity change": "inactive: -10.4%"}
{"smiles": "NC(=O)c1cc([N+](=O)[O-])c(Cl)cc1NCc1cccnc1", "activity change": "inactive: 59.7%"}
{"smiles": "c1csc(-c2ccc(N3CCOCC3)nn2)c1", "activity change": "inconclusive: -45.7% [inhibitor]"}
{"smiles": "CCOC(=O)c1c[nH]c2c([N+](=O)[O-])cc(OC)cc2c1=O", "activity change": "inconclusive: -38.8% [inhibitor]"}
{"smiles": "CCOC(=O)Cc1csc(SCC(=O)N2CCN(c3ccc(OC)cc3)CC2)n1", "activity change": "inactive: 9.92%"}
{"smiles": "CC(C)(C)c1ccc(C2=CSC3=NCCN23)cc1", "activity change": "inactive: -4.33%"}
{"smiles": "CC(C)COc1ccc(C(=O)N(Cc2ccco2)C2CCS(=O)(=O)C2)cc1", "note": "(centres undefined)", "activity change": "inactive: -10.8%"}
{"smiles": "CN1CCN(c2ccccc2NC(=O)c2c(F)cccc2F)CC1", "activity change": "inactive: -11%"}
{"smiles": "Cc1ccc(NC(=S)Nc2ccc3nc(-c4ccccn4)c(-c4ccccn4)nc3c2)cc1C", "activity change": "inactive: -19.4%"}
{"smiles": "C#CCOCCOCCOCCNc1nc(N2CCOCC2)nc(N2CCN(C(=O)[C@H](CCCCN)n3cc([C@@H](N)CC(C)C)nn3)CC2)n1", "activity change": "inconclusive: -40.7% [inhibitor]"}
{"smiles": "NNC(=O)c1ncoc1-c1ccc(Cl)cc1", "activity change": "inconclusive: -31.8% [inhibitor]"}
{"smiles": "Cc1cc(C(=O)CN2C(=O)c3ccccc3S2(=O)=O)c(C)n1CC1CCCO1", "note": "(centres undefined)", "activity change": "inconclusive: -40.4% [inhibitor]"}
